The other results are listed elsewhere or left out. Values come from read counts of a selection and are noisy. Scores sum up all selected molecules that hold the word; the word was not tested alone.
Experiments:
Assay in all cases: 6-mer SELEX enrichment z-score vs GST control; IMP3 is the RNA-binding protein IGF2BP3; higher = more enriched by binding
IMP3 RRM1-2 = details: construct: RRM1-2 (1-163); SELEX round: R2
Procedure: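 SELEX-seq with GST-tagged IMP3 RRM1-2 (Met1-Asn163) and an N40 RNA pool, round 2. 6-mer enrichment z-score normalised to GST SELEX. RNA written as DNA (T = U).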

IMP3 full-length = IMP3 full-length (UniProt O00425); details: construct: FL IMP3 (1-579); SELEX round: R4
Procedure: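 SELEX-seq with GST-tagged full-length IMP3 and an N40 RNA pool, round 4. Each 6-mer is scored as an enrichment z-score of sequence tags containing it, normalised to the matching GST SELEX round. RNA written as DNA (T = U).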

IMP3 KH1-2 = details: construct: KH1-2 (164-376); SELEX round: R4
Procedure: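 SELEX-seq with GST-tagged IMP3 KH1-2 (Pro164-Phe376) and an N40 RNA pool, round 4 (stringent 300/600 mM KCl washes). 6-mer z-score of sequence-tag enrichment normalised to the corresponding GST SELEX round; RNA k-mers written as DNA (T for U).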

IMP3 KH3-4 = details: construct: KH3-4 (377-579); SELEX round: R4
Procedure: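 SELEX-seq with GST-tagged IMP3 KH3-4 (Pro377-Lys579) and an N40 RNA pool, round 4. 6-mer z-score of sequence-tag enrichment normalised to the corresponding GST SELEX round; RNA k-mers written as DNA (T for U).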

Sequence of IMP3 KH3-4 (chain, as listed by the source): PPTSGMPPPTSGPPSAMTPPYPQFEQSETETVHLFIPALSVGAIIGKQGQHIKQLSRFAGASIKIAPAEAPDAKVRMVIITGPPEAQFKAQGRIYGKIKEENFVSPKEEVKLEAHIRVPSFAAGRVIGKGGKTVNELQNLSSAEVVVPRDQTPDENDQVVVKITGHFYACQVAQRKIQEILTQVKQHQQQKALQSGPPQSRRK
Sequence of IMP3 RRM1-2 (chain, as listed by the source): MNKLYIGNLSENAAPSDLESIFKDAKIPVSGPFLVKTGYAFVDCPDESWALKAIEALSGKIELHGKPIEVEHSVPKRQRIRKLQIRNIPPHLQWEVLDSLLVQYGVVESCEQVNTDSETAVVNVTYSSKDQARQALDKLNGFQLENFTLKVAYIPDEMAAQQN
Sequence of IMP3 KH1-2 (chain, as listed by the source): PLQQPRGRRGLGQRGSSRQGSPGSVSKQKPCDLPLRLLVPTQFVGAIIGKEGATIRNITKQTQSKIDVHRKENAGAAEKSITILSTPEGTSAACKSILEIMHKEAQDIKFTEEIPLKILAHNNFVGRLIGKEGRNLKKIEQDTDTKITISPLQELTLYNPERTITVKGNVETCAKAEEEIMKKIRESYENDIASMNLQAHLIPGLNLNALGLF
Sequence of UniProt O00425 (O00425 whole entry): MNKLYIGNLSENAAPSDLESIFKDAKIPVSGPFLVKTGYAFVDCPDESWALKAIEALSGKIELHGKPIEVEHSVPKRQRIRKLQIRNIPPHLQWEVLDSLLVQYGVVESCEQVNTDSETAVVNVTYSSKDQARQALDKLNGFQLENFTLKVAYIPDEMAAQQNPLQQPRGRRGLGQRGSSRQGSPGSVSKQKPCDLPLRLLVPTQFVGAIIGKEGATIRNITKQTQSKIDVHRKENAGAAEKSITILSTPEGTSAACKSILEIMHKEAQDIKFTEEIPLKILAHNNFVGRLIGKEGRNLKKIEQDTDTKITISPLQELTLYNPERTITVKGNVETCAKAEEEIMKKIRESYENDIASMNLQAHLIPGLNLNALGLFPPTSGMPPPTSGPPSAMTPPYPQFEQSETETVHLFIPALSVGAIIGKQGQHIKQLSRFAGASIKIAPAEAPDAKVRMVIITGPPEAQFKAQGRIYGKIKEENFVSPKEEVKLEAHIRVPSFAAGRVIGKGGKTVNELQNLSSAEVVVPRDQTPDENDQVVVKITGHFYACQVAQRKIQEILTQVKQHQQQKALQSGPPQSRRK

Sequence	6-mer SELEX enrichment z-score (IMP3 RRM1-2)	6-mer SELEX enrichment z-score (IMP3 full-length)	6-mer SELEX enrichment z-score (IMP3 KH1-2)	6-mer SELEX enrichment z-score (IMP3 KH3-4)
TGGCCT	0.09	-0.039	-0.091	-0.07
AGGCTG	0.2	0.506	0.259	0.321
CCCTGC	-0.339	-0.751	-0.958	-1.41
CGGTGT	0.245	-0.047	-0.368	-0.295
AGTCTA	0.048	-0.203	-0.34	-0.231
AGACTC	-0.345	-0.647	-0.627	-0.787
TTGAGG	0.037	-0.004	-0.002	0.261
CCTCAT	0.821	0.464	0.337	-0.071
TTTTGT	0.437	0.071	0.233	0.553
TGATGG	-0.008	0.06	0.538	0.852
CTCTCC	0.069	-0.249	0.14	-0.409
TTGTGC	0.264	-0.316	-0.344	-0.272
GACAAT	-0.159	0.397	0.627	0.837
GCTTGC	0.327	0.129	0.012	-0.059
GTTTTT	0.422	0.094	0.259	0.487
GTATCG	0.185	-0.093	-0.39	-0.246
TACAAA	-0.05	0.167	1.06	1.05
CTAATC	0.315	-0.212	0.028	-0.082
TGAGGA	-0.534	0.048	0.461	0.762
AGATTA	-0.432	-0.064	0.913	1.79
ACCAGG	0.463	-0.017	-0.25	-0.424
AGACGC	-0.505	-0.384	-0.449	-0.626
GCCCTC	0.022	-0.304	-0.503	-0.967
CTATTA	0.175	0.055	1.04	1.49

Reference: the supplement of paper PMC6531468
